Among the data in the antibiotic and cytotoxicity screens of Wong et al. (2023) are cytotoxicity call and growth inhibition call values, retold here.

The other results are listed elsewhere or left out.

Test [1] has as its system HSkMC (human skeletal muscle cells). The experiment in a line: cytotoxicity call (relative viability < 0.9). The settings on record: 10 µM.
The subject of test [2] is HepG2. The experiment in a line: cytotoxicity call (relative viability < 0.9). The conditions noted are these: 10 µM.
In test [3] the test system is S. aureus RN4220. Nature of the test: growth inhibition call (relative growth <= 0.2). The conditions noted are these: 50 µM.

As to `C[C@@H]1CCCCO[C@H](CN(C)C(=O)Nc2ccc(C(F)(F)F)cc2)[C@H](C)CN([C@@H](C)CO)C(=O)c2cc(NS(=O)(=O)c3ccc(F)cc3)ccc2O1`, the cytotoxicity call in test [1] was “inactive”. Further, the cytotoxicity call in test [2] was “active”. Further, the growth inhibition call in test [3] is “inactive”.

On to `Cc1ccc(S(=O)(=O)Nc2ccc3c(c2)CC(=O)N([C@@H](C)CO)C[C@@H](C)[C@H](CN(C)C(=O)Nc2cccc4ccccc24)O3)cc1`, for which the cytotoxicity call in test [1] and in test [2] was “inactive” in each case. Besides, the growth inhibition call in test [3] is “inactive”.

As to `COc1ccc(S(=O)(=O)Nc2ccc3c(c2)C(=O)N([C@@H](C)CO)C[C@@H](C)[C@@H](CN(C)Cc2ccccc2)OCCCC[C@H](C)O3)cc1`, the cytotoxicity call in test [1] and in test [2] was “inactive” throughout. Further, in test [3], the growth inhibition call is “inactive”.

As for `C[C@@H]1CN([C@H](C)CO)C(=O)c2cc(NC(=O)CCN3CCOCC3)ccc2O[C@@H]1CN(C)CC1CC1`, the cytotoxicity call in test [1] and in test [2] was “inactive” throughout. In test [3], the growth inhibition call is “inactive”.

Take `Cc1cc(C)c(S(N)(=O)=O)cc1S(N)(=O)=O`: the cytotoxicity call in test [1] and in test [2] was “inactive” in each case. Moreover, the growth inhibition call in test [3] was “inactive”.

On to `CCCCCCCCCC(=O)N[C@@H](Cc1c[nH]c2ccccc12)C(=O)N[C@H](CC(N)=O)C(=O)N[C@@H](CC(=O)O)C(=O)N[C@@H]1C(=O)NCC(=O)N[C@@H](CCCN)C(=O)N[C@@H](CC(=O)O)C(=O)N[C@H](C)C(=O)N[C@@H](CC(=O)O)C(=O)NCC(=O)N[C@H](CO)C(=O)N[C@@H]([C@H](C)CC(=O)O)C(=O)N[C@@H](CC(=O)c2ccccc2N)C(=O)O[C@@H]1C`, for which the cytotoxicity call in test [1] and in test [2] was “inactive” throughout. In test [3], the growth inhibition call is “active”.

For `O=C(CCCCCCC(=O)Nc1ccc(C(=O)NCCOCCOCCNC(=O)c2ccc(NC(=O)CCCCCCC(=O)NO)cc2)cc1)NO`, the cytotoxicity call in test [1] and in test [2] was “inactive” each time. For the same molecule, the growth inhibition call in test [3] was “inactive”.

For the molecule `COc1ccc(S(=O)(=O)Nc2ccc3c(c2)C(=O)N([C@@H](C)CO)C[C@@H](C)[C@@H](CN(C)S(=O)(=O)c2ccc(F)cc2)O3)cc1`, the cytotoxicity call in test [1] and in test [2] was “inactive” each time. Besides, the growth inhibition call in test [3] is “inactive”.

With `C[C@H](CO)N1C[C@H](C)[C@@H](CN(C)Cc2ccc(-c3ccccc3)cc2)Oc2c(NC(=O)c3ccncc3)cccc2C1=O`, the cytotoxicity call in test [1] is “inactive”. Besides, the cytotoxicity call in test [2] is “active”. Further, the growth inhibition call in test [3] is “inactive”.

On to `O=C(C[C@H]1CC[C@@H]2[C@H](COC[C@@H](O)CN2C(=O)Nc2ccc3c(c2)OCO3)O1)N1CCN(c2ccccc2)CC1`, for which the cytotoxicity call in test [1] and in test [2] was “inactive” each time. Also, the growth inhibition call in test [3] was “inactive”.

Turning to `C[C@H]1CCCCO[C@@H](CN(C)Cc2ccccc2)[C@@H](C)CN([C@@H](C)CO)C(=O)c2cc(NC(=O)Nc3ccc(F)cc3)ccc2O1`, the cytotoxicity call in test [1] and in test [2] was “active” throughout. Besides, the growth inhibition call in test [3] was “inactive”.

On to `COc1ccc(S(=O)(=O)Nc2ccc3c(c2)C(=O)N([C@H](C)CO)C[C@H](C)[C@@H](CN(C)C(=O)Nc2c(C)noc2C)O3)cc1`, for which the cytotoxicity call in test [1] and in test [2] was “inactive” throughout. Also, the growth inhibition call in test [3] was “inactive”.

With `O=c1c(O[C@@H]2O[C@H](CO)[C@H](O)[C@H](O)[C@H]2O)c(-c2ccc(O)c(O)c2)oc2cc(O)cc(O)c12`, the cytotoxicity call in test [1] and in test [2] was “inactive” in each case. In addition, the growth inhibition call in test [3] is “inactive”.

As to `C[C@H](CO)N1C[C@H](C)[C@@H](CN(C)C)Oc2ccc(NC(=O)Cc3cn(C)c4ccccc34)cc2CC1=O`, the cytotoxicity call in test [1] and in test [2] was “inactive” each time. For the same molecule, in test [3], the growth inhibition call was “inactive”.

On to `C[C@H]1CN([C@@H](C)CO)C(=O)c2cccc(NS(=O)(=O)c3cccs3)c2O[C@@H]1CN(C)S(=O)(=O)c1cn(C)cn1`, for which the cytotoxicity call in test [1] and in test [2] was “inactive” each time. For the same molecule, the growth inhibition call in test [3] was “inactive”.

As for `O=C(C[C@H]1CC[C@H]2[C@@H](COC[C@@H](O)CN2C(=O)Nc2ccc(Cl)cc2)O1)NC1Cc2ccccc2C1`, the cytotoxicity call in test [1] was “inactive”. Moreover, in test [2], the cytotoxicity call is “active”. Further, the growth inhibition call in test [3] is “inactive”.

In the case of `COc1ccc2c3c([nH]c2c1)[C@H](CO)N(C[C@]13CN(C1)S(=O)(=O)C)C(=O)c1cnccn1`, the cytotoxicity call in test [1] and in test [2] was “inactive” throughout. Moreover, in test [3], the growth inhibition call was “inactive”.

As to `COc1ccc(CN(C)C[C@H]2OCCCC[C@H](C)Oc3ccc(NC(=O)c4ccccc4)cc3C(=O)N([C@H](C)CO)C[C@H]2C)cc1`, the cytotoxicity call in test [1] and in test [2] was “inactive” throughout. The growth inhibition call in test [3] was “inactive”.

On to `COc1ccccc1S(=O)(=O)N(C)C[C@@H]1OCc2cn(nn2)CCCC(=O)N([C@H](C)CO)C[C@@H]1C`, for which the cytotoxicity call in test [1] and in test [2] was “inactive” throughout. Moreover, the growth inhibition call in test [3] is “inactive”.

Turning to `C[C@@H]1CCCCO[C@@H](CN(C)CC2CCCCC2)[C@@H](C)CN([C@@H](C)CO)C(=O)c2cc(NS(=O)(=O)c3ccc(F)cc3)ccc2O1`, the cytotoxicity call in test [1] and in test [2] was “inactive” throughout. Further, the growth inhibition call in test [3] was “inactive”.

For `Cc1noc(C)c1S(=O)(=O)Nc1cccc2c1O[C@H](CN(C)S(=O)(=O)c1ccccc1)[C@H](C)CN([C@@H](C)CO)C2=O`, the cytotoxicity call in test [1] and in test [2] was “inactive” in each case. Further, the growth inhibition call in test [3] was “inactive”.

For the molecule `COc1ccc(CN(C)C[C@@H]2OCCCC[C@H](C)Oc3ccc(NC(=O)CCC(F)(F)F)cc3C(=O)N([C@@H](C)CO)C[C@@H]2C)cc1`, the cytotoxicity call in test [1] and in test [2] was “inactive” throughout. The growth inhibition call in test [3] is “inactive”.

For the molecule `C[C@@H]1CCCCO[C@@H](CN(C)S(=O)(=O)c2ccc(Cl)cc2)[C@H](C)CN([C@H](C)CO)C(=O)c2cc(NC(=O)Nc3ccc(F)cc3)ccc2O1`, the cytotoxicity call in test [1] is “inactive”. Besides, in test [2], the cytotoxicity call is “active”. Besides, the growth inhibition call in test [3] is “inactive”.

Turning to `COc1ccc(S(=O)(=O)N(C)C[C@H]2OCCCC[C@@H](C)Oc3ccc(NC(=O)Nc4ccc(C(F)(F)F)cc4)cc3C(=O)N([C@@H](C)CO)C[C@@H]2C)cc1`, the cytotoxicity call in test [1] is “active”. For the same molecule, the cytotoxicity call in test [2] was “inactive”. In addition, in test [3], the growth inhibition call is “inactive”.

As for `Cc1noc(C)c1NC(=O)N(C)C[C@H]1Oc2ccc(NC(=O)NC(C)C)cc2C(=O)N([C@H](C)CO)C[C@@H]1C`, the cytotoxicity call in test [1] and in test [2] was “inactive” throughout. In addition, in test [3], the growth inhibition call was “inactive”.
